Test results as given in paper PMC12820563.
This is one part of the list. The list includes weakly bound sequences.

Molecular target: T1, MBP-FoxP3dN (UniProt Q99JB6)
T1 sequence: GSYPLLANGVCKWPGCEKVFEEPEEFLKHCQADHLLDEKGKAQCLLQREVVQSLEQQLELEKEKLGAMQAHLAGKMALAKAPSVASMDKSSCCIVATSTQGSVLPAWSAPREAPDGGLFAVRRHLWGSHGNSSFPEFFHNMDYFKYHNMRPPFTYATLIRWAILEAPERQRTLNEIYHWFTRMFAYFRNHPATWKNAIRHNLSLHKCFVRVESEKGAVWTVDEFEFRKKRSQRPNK
Experiment: PD-seq (MBP pull-down with sequencing)
Settings: 20 mM Tris-HCl pH 7.5, 100 mM NaCl, 1.5 mM MgCl2, 0.4 uM protein, 0.1 uM dsDNA library, 30 min, room temperature, amylose pull-down; high values mean tight binding; double strand, one strand shown

Sequence	binding signal (RPM ratio (pull-down/input))
GATGATTGTTCTCCCAGCTGATGAATTTCTATTATCGAGTAAACAAATTTTCCTAATCTTTCTGTTCAAGCGCCATCTAC	0.61
GATGATTGTTCTCCCAGCTGATGAATTAGGAGTGTCGAGTAAACAAATTTTCCTAATCTTTCTGTTCAAGCGCCATCTAC	0.967
GATGATTGTTCTCCCAGCTGATGAATTCTTCGCATCGAGTAAACAAATTTTCCTAATCTTTCTGTTCAAGCGCCATCTAC	0.708
GATGATTGTTCTCCCAGCTGATGAATTCAGCGCGTCGAGTAAACAAATTTTCCTAATCTTTCTGTTCAAGCGCCATCTAC	1.25
GATGATTGTTCTCCCAGCTGATGAATTATCGTATTCGAGTAAACAAATTTTCCTAATCTTTCTGTTCAAGCGCCATCTAC	1.35
GATGATTGTTCTCCCAGCTGATGAATTCCCGACATCGAGTAAACAAATTTTCCTAATCTTTCTGTTCAAGCGCCATCTAC	0.408
GATGATTGTTCTCCCAGCTGATGAATTTCCTAGTTCGAGTAAACAAATTTTCCTAATCTTTCTGTTCAAGCGCCATCTAC	0.288
GATGATTGTTCTCCCAGCTGATGAATTGCATAACTCGAGTAAACAAATTTTCCTAATCTTTCTGTTCAAGCGCCATCTAC	0.814
GATGATTGTTCTCCCAGCTGATGAATTCTTACTGTCGAGTAAACAAATTTTCCTAATCTTTCTGTTCAAGCGCCATCTAC	0.276
GATGATTGTTCTCCCAGCTGATGAATTCACTGCTTCGAGTAAACAAATTTTCCTAATCTTTCTGTTCAAGCGCCATCTAC	0.345
GATGATTGTTCTCCCAGCTGATGAATTTGCGGATTCGAGTAAACAAATTTTCCTAATCTTTCTGTTCAAGCGCCATCTAC	0.838
GATGATTGTTCTCCCAGCTGATGAATTCCAGGTATCGAGTAAACAAATTTTCCTAATCTTTCTGTTCAAGCGCCATCTAC	0.446
GATGATTGTTCTCCCAGCTGATGAATTCGGTGCCTCGAGTAAACAAATTTTCCTAATCTTTCTGTTCAAGCGCCATCTAC	1.08
GATGATTGTTCTCCCAGCTGATGAATTCTGATACTCGAGTAAACAAATTTTCCTAATCTTTCTGTTCAAGCGCCATCTAC	0.986
GATGATTGTTCTCCCAGCTGATGAATTTAAGTGCTCGAGTAAACAAATTTTCCTAATCTTTCTGTTCAAGCGCCATCTAC	0.628
GATGATTGTTCTCCCAGCTGATGAATTTTGGTCTTCGAGTAAACAAATTTTCCTAATCTTTCTGTTCAAGCGCCATCTAC	0.487
GATGATTGTTCTCCCAGCTGATGAATTACGAGTTTCGAGTAAACAAATTTTCCTAATCTTTCTGTTCAAGCGCCATCTAC	1.1
GATGATTGTTCTCCCAGCTGATGAATTCATTCTGTCGAGTAAACAAATTTTCCTAATCTTTCTGTTCAAGCGCCATCTAC	0.272
GATGATTGTTCTCCCAGCTGATGAATTCGCGGCATCGAGTAAACAAATTTTCCTAATCTTTCTGTTCAAGCGCCATCTAC	0.76
GATGATTGTTCTCCCAGCTGATGAATTGTGTTCGTCGAGTAAACAAATTTTCCTAATCTTTCTGTTCAAGCGCCATCTAC	1.65
GATGATTGTTCTCCCAGCTGATGAATTTGCCATATCGAGTAAACAAATTTTCCTAATCTTTCTGTTCAAGCGCCATCTAC	1.49

Sequence	binding signal (RPM ratio (pull-down/input))
GATGATTGTTCTCCCAGCTGATGAATTGTGACGGTCGAGTAAACAAATTTTCCTAATCTTTCTGTTCAAGCGCCATCTAC	0.481
GATGATTGTTCTCCCAGCTGATGAATTTTCGTGATCGAGTAAACAAATTTTCCTAATCTTTCTGTTCAAGCGCCATCTAC	0.353
GATGATTGTTCTCCCAGCTGATGAATTGACCCACTCGAGTAAACAAATTTTCCTAATCTTTCTGTTCAAGCGCCATCTAC	0.352
GATGATTGTTCTCCCAGCTGATGAATTGCAAGTTTCGAGTAAACAAATTTTCCTAATCTTTCTGTTCAAGCGCCATCTAC	0.791
GATGATTGTTCTCCCAGCTGATGAATTAGGCAGGTCGAGTAAACAAATTTTCCTAATCTTTCTGTTCAAGCGCCATCTAC	0.591
GATGATTGTTCTCCCAGCTGATGAATTATCGACGTCGAGTAAACAAATTTTCCTAATCTTTCTGTTCAAGCGCCATCTAC	0.345
GATGATTGTTCTCCCAGCTGATGAATTATCTTAATCGAGTAAACAAATTTTCCTAATCTTTCTGTTCAAGCGCCATCTAC	0.251
GATGATTGTTCTCCCAGCTGATGAATTCTTGCGGTCGAGTAAACAAATTTTCCTAATCTTTCTGTTCAAGCGCCATCTAC	0.31
GATGATTGTTCTCCCAGCTGATGAATTCAGCAGATCGAGTAAACAAATTTTCCTAATCTTTCTGTTCAAGCGCCATCTAC	0.278
GATGATTGTTCTCCCAGCTGATGAATTCACACACTCGAGTAAACAAATTTTCCTAATCTTTCTGTTCAAGCGCCATCTAC	0.431
GATGATTGTTCTCCCAGCTGATGAATTGGTCAAGTCGAGTAAACAAATTTTCCTAATCTTTCTGTTCAAGCGCCATCTAC	0.217
GATGATTGTTCTCCCAGCTGATGAATTCAAATTCTCGAGTAAACAAATTTTCCTAATCTTTCTGTTCAAGCGCCATCTAC	0.426
GATGATTGTTCTCCCAGCTGATGAATTAATAAGTTCGAGTAAACAAATTTTCCTAATCTTTCTGTTCAAGCGCCATCTAC	0.346
GATGATTGTTCTCCCAGCTGATGAATTATATAGGTCGAGTAAACAAATTTTCCTAATCTTTCTGTTCAAGCGCCATCTAC	0.454
GATGATTGTTCTCCCAGCTGATGAATTACTCGCCTCGAGTAAACAAATTTTCCTAATCTTTCTGTTCAAGCGCCATCTAC	0.527
GATGATTGTTCTCCCAGCTGATGAATTCTTGCCGTCGAGTAAACAAATTTTCCTAATCTTTCTGTTCAAGCGCCATCTAC	0.517
GATGATTGTTCTCCCAGCTGATGAATTAAATAGTTCGAGTAAACAAATTTTCCTAATCTTTCTGTTCAAGCGCCATCTAC	0.661
GATGATTGTTCTCCCAGCTGATGAATTTGCCCTCTCGAGTAAACAAATTTTCCTAATCTTTCTGTTCAAGCGCCATCTAC	0.526
GATGATTGTTCTCCCAGCTGATGAATTAGGGTTTTCGAGTAAACAAATTTTCCTAATCTTTCTGTTCAAGCGCCATCTAC	0.758
GATGATTGTTCTCCCAGCTGATGAATTTCCCATGTCGAGTAAACAAATTTTCCTAATCTTTCTGTTCAAGCGCCATCTAC	0.287
GATGATTGTTCTCCCAGCTGATGAATTTCTATGGTCGAGTAAACAAATTTTCCTAATCTTTCTGTTCAAGCGCCATCTAC	0.282

Sequence	binding signal (RPM ratio (pull-down/input))
GATGATTGTTCTCCCAGCTGATGAATTATAAATGTCGAGTAAACAAATTTTCCTAATCTTTCTGTTCAAGCGCCATCTAC	0.446
GATGATTGTTCTCCCAGCTGATGAATTTAGGATATCGAGTAAACAAATTTTCCTAATCTTTCTGTTCAAGCGCCATCTAC	0.501
GATGATTGTTCTCCCAGCTGATGAATTGCGTCAGTCGAGTAAACAAATTTTCCTAATCTTTCTGTTCAAGCGCCATCTAC	0.93
GATGATTGTTCTCCCAGCTGATGAATTGATTGCATCGAGTAAACAAATTTTCCTAATCTTTCTGTTCAAGCGCCATCTAC	1.87
GATGATTGTTCTCCCAGCTGATGAATTCGGGCTGTCGAGTAAACAAATTTTCCTAATCTTTCTGTTCAAGCGCCATCTAC	0.3
GATGATTGTTCTCCCAGCTGATGAATTCGATCTGTCGAGTAAACAAATTTTCCTAATCTTTCTGTTCAAGCGCCATCTAC	0.275
GATGATTGTTCTCCCAGCTGATGAATTTGCAACTTCGAGTAAACAAATTTTCCTAATCTTTCTGTTCAAGCGCCATCTAC	4.24
GATGATTGTTCTCCCAGCTGATGAATTCACAACCTCGAGTAAACAAATTTTCCTAATCTTTCTGTTCAAGCGCCATCTAC	0.413
GATGATTGTTCTCCCAGCTGATGAATTGCTACCATCGAGTAAACAAATTTTCCTAATCTTTCTGTTCAAGCGCCATCTAC	0.894
GATGATTGTTCTCCCAGCTGATGAATTGTCTATGTCGAGTAAACAAATTTTCCTAATCTTTCTGTTCAAGCGCCATCTAC	0.881
GATGATTGTTCTCCCAGCTGATGAATTAATTAGGTCGAGTAAACAAATTTTCCTAATCTTTCTGTTCAAGCGCCATCTAC	0.654
GATGATTGTTCTCCCAGCTGATGAATTGTGCCACTCGAGTAAACAAATTTTCCTAATCTTTCTGTTCAAGCGCCATCTAC	6.84
GATGATTGTTCTCCCAGCTGATGAATTCCAAGCCTCGAGTAAACAAATTTTCCTAATCTTTCTGTTCAAGCGCCATCTAC	0.344
GATGATTGTTCTCCCAGCTGATGAATTTGGCGAATCGAGTAAACAAATTTTCCTAATCTTTCTGTTCAAGCGCCATCTAC	0.363
GATGATTGTTCTCCCAGCTGATGAATTGATAACTTCGAGTAAACAAATTTTCCTAATCTTTCTGTTCAAGCGCCATCTAC	0.437
GATGATTGTTCTCCCAGCTGATGAATTAGCAAGATCGAGTAAACAAATTTTCCTAATCTTTCTGTTCAAGCGCCATCTAC	0.304
GATGATTGTTCTCCCAGCTGATGAATTCTACTCATCGAGTAAACAAATTTTCCTAATCTTTCTGTTCAAGCGCCATCTAC	0.414
GATGATTGTTCTCCCAGCTGATGAATTTCGATTGTCGAGTAAACAAATTTTCCTAATCTTTCTGTTCAAGCGCCATCTAC	2.91
GATGATTGTTCTCCCAGCTGATGAATTACGGCTGTCGAGTAAACAAATTTTCCTAATCTTTCTGTTCAAGCGCCATCTAC	0.43
GATGATTGTTCTCCCAGCTGATGAATTAAGGGGCTCGAGTAAACAAATTTTCCTAATCTTTCTGTTCAAGCGCCATCTAC	0.355
GATGATTGTTCTCCCAGCTGATGAATTCGCGACCTCGAGTAAACAAATTTTCCTAATCTTTCTGTTCAAGCGCCATCTAC	0.458
